Test results: PubChem BioAssay AID686979 (National Center for Advancing Translational Sciences (NCATS), 2013)
Screen size: about 420,000 compounds; about 50,000 (12%) were called active. This list was built around the results that the source calls inconclusive (neither active nor inactive); the mix of calls is not that of the screen. Calls come from the whole dose curve; as a rule, active = well fitted inhibition curve with a large enough effect; inconclusive = small, poorly fitted or top-dose-only effect; inactive = flat fitted curve, though single readings scatter. Potencies of inconclusive entries are left out as doubtful fits.

assay: qHTS for Inhibitors of human tyrosyl-DNA phosphodiesterase 1 (TDP1): qHTS in cells in presence of CPT; settings: chicken DT40 Tdp1-/-;hTDP1 cells + 20 nM CPT, ATP luminescence, 48 h; activity change, negative = growth inhibition: at 46.2 µM (top of the series) unless noted; note: nearly all actives have a fitted effect of over 55% in size
Summary of the method: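 Chicken DT40 Tdp1-/- cells complemented with human TDP1, 400 cells/well, exposed to compounds plus 20 nM camptothecin for at least 48 h at 37 C; viability read as ATP content by CellTiter-Glo luminescence.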
% is set by controls: 0 for no effect and ±100 for the full control effect; potency is the fitted concentration of half-maximal effect; tags give direction and shape of the fitted curve.

Q: With `CCOC(=O)c1cc2c(=O)n3cccc(C)c3nc2n(CCCOC)c1=NC(=O)c1cccnc1` as the compound, how does the “activity change, negative = growth inhibition” value read?
A: inactive: -27.8%

Q: With `O=C(O)C1=C[C@H](c2cccs2)C[C@H](OCCCCO)O1` as the compound, how does the “activity change, negative = growth inhibition” value read?
A: inactive: 1.58%

Q: For `O=c1c(=O)n(-c2ccccc2)ccn1Cc1cccc(C(F)(F)F)c1`, which Potency is on record?
A: inconclusive [inhibitor, single point]

Q: With `CCOC(=O)N1CC=C2C(C#N)=C(N)C(C#N)(C#N)[C@H](c3ccc(OCC)c(OCC)c3)[C@H]2C1` as the compound, how does the Potency read?
A: inconclusive [inhibitor, partial curve, poor fit]

Q: Which Potency does the source give for `Cc1cc(/C=C(\C#N)C(=O)Nc2ccccc2)c(C)n1-c1ccc2c(c1)OCO2` here?
A: inconclusive [inhibitor, single point]

Q: With `CCC(C(=O)OCC(=O)N(CCOC)c1c(N)n(Cc2ccccc2)c(=O)[nH]c1=O)c1ccccc1` (centres undefined) as the compound, how does the “activity change, negative = growth inhibition” value read?
A: inactive: -9.56%

Q: With `O=C(Nc1ccc(CN2CCOCC2)cc1)c1cc(Cl)ccc1Cl` as the compound, how does the “activity change, negative = growth inhibition” value read?
A: inactive: -5.65%

Q: Which Potency does the source give for `O=C1COc2ccc(-c3cc(-c4ccc(F)cc4)c4c(n3)-c3cc(Cl)ccc3OC4)cc2N1` here?
A: inconclusive [inhibitor, full curve, poor fit]

Q: Which “activity change, negative = growth inhibition” value does the source give for `Cc1nn(C)c(Oc2cccc(C(F)(F)F)c2)c1C#N` here?
A: inactive: -0.187%

Q: With `N/C(=N\OC(=O)c1ccco1)c1ccccn1` as the compound, how does the Potency read?
A: inconclusive [inhibitor, single point]

Q: Which Potency does the source give for `Cc1ccc(N2C(=O)C(CN3CCCCC3)C2c2ccccc2)cc1` (centres undefined) here?
A: inconclusive [inhibitor, single point]

Q: Which Potency does the source give for `COc1ccccc1CNS(=O)(=O)c1cc(Br)cc2c1N(C(C)=O)C(C)C2` (centres undefined) here?
A: inconclusive [inhibitor, single point]

Q: With `O=C(C[n+]1ccc2ccccc2c1)c1ccc2ccc3ccccc3c2c1` as the compound, how does the Potency read?
A: active: 3.26 µM

Q: With `COc1cccc(CNC(=O)Cc2ccc(NC(=O)C3=C(C)OCCS3)cc2)c1` as the compound, how does the Potency read?
A: inconclusive [inhibitor, single point]

Q: With `CC(CC(=O)O)CC(=O)Nc1cc(C(F)(F)F)cc(C(F)(F)F)c1` (centres undefined) as the compound, how does the “activity change, negative = growth inhibition” value read?
A: inactive: 9.48%

Q: With `Cc1ccc(N2CC(c3nnc(Cc4ccc(F)cc4)o3)CC2=O)cc1` (centres undefined) as the compound, how does the “activity change, negative = growth inhibition” value read?
A: inactive: -5.67%

Q: Which Potency does the source give for `COc1ccc(OC)c(NC(=O)COC(=O)c2ccc(OC)c(S(=O)(=O)N3CCCC3)c2)c1` here?
A: inconclusive [inhibitor, single point]

Q: For `O=C(Nc1ccc(N2CCCC2)cc1)c1ccccc1[N+](=O)[O-]`, which Potency is on record?
A: inconclusive [inhibitor, single point]

Q: Which “activity change, negative = growth inhibition” value does the source give for `O=C(Cc1cccs1)Nc1ccccc1` here?
A: inactive: -16.6%

Q: Which Potency does the source give for `COc1ccccc1NC(=O)c1cc(-c2ccc(OC)c(OC)c2)nc2ccccc12` here?
A: active: 16.4 µM

Q: With `COc1cc(-c2nc3ccccn3c2/N=C/c2cccc(OC)c2O)ccc1O` as the compound, how does the activity change, negative = growth inhibition read?
A: inconclusive: -36.9% [inhibitor]

Q: With `CCCCCNC(=O)C1C(=O)Nc2ccccc2C(=O)N1c1ccc(OC)cc1` (centres undefined) as the compound, how does the Potency read?
A: inconclusive [inhibitor, partial curve]

Q: For `CCCCCCn1c(SCCN2CCOCC2)nc2c1c(=O)[nH]c(=O)n2C`, which “activity change, negative = growth inhibition” value is on record?
A: inactive: -25.8%

Q: Which Potency does the source give for `CCc1ccc(CNC(=O)C2CCCN(c3nnc(C)c4c(C)n(-c5ccc(OC)cc5)nc34)C2)cc1` (centres undefined) here?
A: active: 4.61 µM

Q: Which “activity change, negative = growth inhibition” value does the source give for `Cc1c(C(=O)Nc2ccccc2Cl)sc2ncnc(N(C)C3CCCCC3)c12` here?
A: inactive: -11.1%

Q: With `CCCN1CCN(S(=O)(=O)c2ccc3c(c2)OCCO3)CC1` as the compound, how does the Potency read?
A: inactive

Q: Which “activity change, negative = growth inhibition” value does the source give for `C/C(N)=C(/C#N)C(=O)CSc1nc2scc(-c3ccc(F)cc3)c2c(=O)n1C` here?
A: inactive: -22.7%

Q: With `CC1CN(C(=O)COC(=O)c2ccc3ccccc3c2)CC(C)O1` (centres undefined) as the compound, how does the “activity change, negative = growth inhibition” value read?
A: inactive: 10.3%

Q: With `CCCOc1ccc(/C=C/c2c([N+](=O)[O-])c(=O)n(C)c(=O)n2C)cc1` as the compound, how does the “activity change, negative = growth inhibition” value read?
A: inactive: -22.4%

Q: With `Cc1cccc(C)c1NC(=O)CSc1ncc2c(n1)-c1ccc(Cl)cc1N(Cc1ccccc1)S2(=O)=O` as the compound, how does the Potency read?
A: inconclusive [inhibitor, single point]

Q: Which Potency does the source give for `CN(C(=O)c1ccc(-c2nn(C)c(=O)c3ccccc23)cc1)C1CCCCC1` here?
A: active: 13 µM

Q: Which Potency does the source give for `O=C(COC(=O)c1ccc2c(c1)OCCO2)NCc1ccc(Cl)cc1` here?
A: inconclusive [inhibitor, single point]

Q: Which Potency does the source give for `CC(C)Nc1nc(-c2ccccc2F)c2sc(-c3ccccc3)cc2n1` here?
A: inconclusive [inhibitor, single point]

Q: Which Potency does the source give for `O=C(Nc1ccc(Br)c2ccccc12)c1ccc2ccccc2c1O` here?
A: active: 8.2 µM

Q: For `Cc1oc(-c2ccccc2F)nc1CSCC(=O)NCc1ccccc1`, which Potency is on record?
A: inconclusive [inhibitor, single point]

Q: With `CC(CCc1ccccc1)NC(=O)Cn1c(=O)nc(-c2ccccc2F)c2cc(Cl)ccc21` (centres undefined) as the compound, how does the “activity change, negative = growth inhibition” value read?
A: inactive: -8.31%

Q: With `CCOC(=O)Cn1nnnc1C(CC)N(Cc1cccs1)Cc1cc2cc(C)ccc2[nH]c1=O` (centres undefined) as the compound, how does the Potency read?
A: inconclusive [inhibitor, single point]

Q: For `COc1ccccc1NS(=O)(=O)c1ccc2nc(CCl)[nH]c2c1`, which Potency is on record?
A: inconclusive [inhibitor, partial curve]

Q: For `O=C(NCCOc1ccccc1)C1Nc2ccc(OC(F)(F)F)cc2C2C=CCC12` (centres undefined), which Potency is on record?
A: inconclusive [inhibitor, single point]

Q: For `Cc1cc([N+](=O)[O-])nn1CCCC(=O)Nc1cccc(Cl)c1Cl`, which “activity change, negative = growth inhibition” value is on record?
A: inactive: -14.5%

Q: Which Potency does the source give for `Cc1ccccc1N1C(=O)c2ccccc2N2C(=O)c3ccccc3C12` (centres undefined) here?
A: active: 8.2 µM

Q: With `CCOC(=O)COc1cccc2c(=O)n(CC(=O)N3CCC(C)CC3)ccc12` as the compound, how does the “activity change, negative = growth inhibition” value read?
A: inactive: 0.638%

Q: For `Cc1ccc(C2Oc3ccccc3C3=C2C(c2cccs2)n2ncnc2N3)cc1` (centres undefined), which Potency is on record?
A: inconclusive [inhibitor, single point]

Q: With `CCC(C)(C(=O)NC1CCCC1)N(Cc1ccco1)C(=O)c1ccc2c(c1)OCO2` (centres undefined) as the compound, how does the Potency read?
A: active: 9.2 µM

Q: Which “activity change, negative = growth inhibition” value does the source give for `C=CCNC(=S)NNC(=O)CSc1nc2ccccc2s1` here?
A: inactive: 11.4%

Q: For `CCCCCn1c(SCC#N)nc2cc(C(=O)NCC3CCCO3)ccc2c1=O` (centres undefined), which Potency is on record?
A: inconclusive [inhibitor, single point]

Q: For `Cc1ccc(C(=O)NNC2=NCCC2)cc1`, which “activity change, negative = growth inhibition” value is on record?
A: inactive: -8.28%

Q: Which Potency does the source give for `O=C(Nc1nc(-c2ccccn2)cs1)c1ccc(-c2ccccc2F)o1` here?
A: active: 5.8 µM

Q: With `CCN(CC(=O)Nc1c(F)cccc1F)C(=O)Cc1ccc2c(c1)OCCO2` as the compound, how does the “activity change, negative = growth inhibition” value read?
A: inactive: -15.4%
